In brackets after ≈: the same amount, converted by molar mass.
Conditions: buffer; pH 7.4; 200.0 µM

Row | SMILES | solubility kinetic [µg/mL]
1 | COc1ccc(CNc2ncnc3cc(Cl)ccc23)cc1 | 0.6 (≈ 2 µM)
2 | Cc1cccc(C(=O)NCCC(=O)Nc2ccc(C)c(F)c2)c1 | 2.2 (≈ 7 µM)
3 | CCOC(=O)c1cc(CC)sc1/N=C/C1C(=O)NC(=S)NC1=O | 5.8 (≈ 16.4 µM)
4 | CCCC1CC(C(=O)NC(C(C)Cl)C2OC(SC)C(O)C(O)C2O)N(C)C1 (centres undefined) | > 63.7
5 | O=C(c1cccc([N+](=O)[O-])c1)C12CN3CN(CN(C3)C1)C2 | > 43.2
6 | Cc1cc(Cl)ccc1C(=O)C1CCCN(C(=O)c2cscn2)C1 (centres undefined) | > 52.3
7 | O=C(Nc1nc2cc3c(cc2s1)OCCO3)c1ccncc1 | 3.6 (≈ 11.5 µM)
8 | COc1ccc(CNC(=O)CCC(=O)c2ccccc2)cc1 | > 44.6
9 | COc1ccc(Nc2nc(N)nc(CCl)n2)cc1 | > 39.9
10 | Cc1ccc2nc(-c3ccccc3)cc(C(=O)NCC3CCCO3)c2c1 (centres undefined) | 15.2 (≈ 43.9 µM)
11 | C=CCN1C2CCCC1CC(NC(=S)Nc1cccc(OC)c1)C2 (centres undefined) | > 51.8
12 | N#CCOc1ccccc1P(=O)(c1ccccc1)c1ccccc1 | > 50
13 | Nc1c(SCCC(=O)O)ccc2c1C(=O)c1ccccc1C2=O | > 49.1
14 | COc1ccc(OC)c(S(=O)(=O)N2CCN(c3ccc(F)cc3)CC2)c1 | 14 (≈ 36.8 µM)
15 | Cc1ccc(C(=S)N2CCCCCC2)cc1 | 23.4 (≈ 100 µM)
16 | CCCC(=O)Nc1ccc2c(c1)nc1n2CCN(C2CCCCC2)C1 | 41 (≈ 120 µM)
17 | CCCc1c(O)nc(SC2CC(=O)N(c3ccc(C)c(Cl)c3)C2=O)[nH]c1=O (centres undefined) | 47 (≈ 115 µM)
18 | CCOC(=O)C1CCCN(CC(=O)N(C)c2c(N)n(Cc3ccccc3)c(=O)[nH]c2=O)C1 (centres undefined) | > 66.5
19 | O=C(Nc1nc2ccccc2c(=O)s1)c1ccco1 | 2.6 (≈ 9.55 µM)
